In the assay the target is T1, FRB-NFluc (human; firefly, UniProt P42345 2024-2113; P08659 2-416 = luciferase).
T1 construct: range 2024-2113;range 2-416
The assay can be described thus: cell-free split-luciferase reassembly; interaction depends on rapamycin.

B1: CFluc-FKBP (other, firefly;human, not shown: small tags and cut ends)
chain: MSGYVNNPEATNALIDKDGWLHSGDIAYWDEDEHFFIVDRLKSLIKYKGYQVAPAELESILLQHPNIFDAGVAGLPDDDAGELPAAVVVLEHGKTMTEKEIVDYVASQVTTAKKLRGGVVFVDEVPKGLTGKLDARKIREILIKAKKGGKSK[about 100 residues omitted]
On to B1, for which the binding result was “binds”.

(Values after patent US20090170069A1 (ARIZONA BOARD OF REGENTS ON BEHALF OF THE UNIVERSITY OF …, published 2009).)
